Results reported in PubChem BioAssay AID1347165 (National Center for Advancing Translational Sciences (NCATS), 2019).
Hit rate of the full screen: of about 220,000 compounds, about 5,700 (2.6%) were called active. Inconclusive means that the source gave no clear call. Such entries were picked first, then a sample of the others. The call rests on the fitted dose curve; in most records, active means well fitted inhibition curve with a large enough effect; inconclusive means small, poorly fitted or top-dose-only effect; inactive means no such curve, though single readings can be large or run the other way. Where the call is inconclusive, the potency comes from a doubtful curve fit.

What follows are compounds tested against Lysine-specific demethylase 5B (Homo sapiens) (UniProt Q9UGL1) (assay: Primary screen for KDM5B Histone Demethylases FDH-coupled qHTS). Details: FDH-coupled NADH fluorescence (FDH is formaldehyde dehydrogenase); activity change, negative = inhibition: at 57.7 µM (top of the series) unless noted.
UniProt Q9UGL1, sequence (Q9UGL1 whole entry, looked up): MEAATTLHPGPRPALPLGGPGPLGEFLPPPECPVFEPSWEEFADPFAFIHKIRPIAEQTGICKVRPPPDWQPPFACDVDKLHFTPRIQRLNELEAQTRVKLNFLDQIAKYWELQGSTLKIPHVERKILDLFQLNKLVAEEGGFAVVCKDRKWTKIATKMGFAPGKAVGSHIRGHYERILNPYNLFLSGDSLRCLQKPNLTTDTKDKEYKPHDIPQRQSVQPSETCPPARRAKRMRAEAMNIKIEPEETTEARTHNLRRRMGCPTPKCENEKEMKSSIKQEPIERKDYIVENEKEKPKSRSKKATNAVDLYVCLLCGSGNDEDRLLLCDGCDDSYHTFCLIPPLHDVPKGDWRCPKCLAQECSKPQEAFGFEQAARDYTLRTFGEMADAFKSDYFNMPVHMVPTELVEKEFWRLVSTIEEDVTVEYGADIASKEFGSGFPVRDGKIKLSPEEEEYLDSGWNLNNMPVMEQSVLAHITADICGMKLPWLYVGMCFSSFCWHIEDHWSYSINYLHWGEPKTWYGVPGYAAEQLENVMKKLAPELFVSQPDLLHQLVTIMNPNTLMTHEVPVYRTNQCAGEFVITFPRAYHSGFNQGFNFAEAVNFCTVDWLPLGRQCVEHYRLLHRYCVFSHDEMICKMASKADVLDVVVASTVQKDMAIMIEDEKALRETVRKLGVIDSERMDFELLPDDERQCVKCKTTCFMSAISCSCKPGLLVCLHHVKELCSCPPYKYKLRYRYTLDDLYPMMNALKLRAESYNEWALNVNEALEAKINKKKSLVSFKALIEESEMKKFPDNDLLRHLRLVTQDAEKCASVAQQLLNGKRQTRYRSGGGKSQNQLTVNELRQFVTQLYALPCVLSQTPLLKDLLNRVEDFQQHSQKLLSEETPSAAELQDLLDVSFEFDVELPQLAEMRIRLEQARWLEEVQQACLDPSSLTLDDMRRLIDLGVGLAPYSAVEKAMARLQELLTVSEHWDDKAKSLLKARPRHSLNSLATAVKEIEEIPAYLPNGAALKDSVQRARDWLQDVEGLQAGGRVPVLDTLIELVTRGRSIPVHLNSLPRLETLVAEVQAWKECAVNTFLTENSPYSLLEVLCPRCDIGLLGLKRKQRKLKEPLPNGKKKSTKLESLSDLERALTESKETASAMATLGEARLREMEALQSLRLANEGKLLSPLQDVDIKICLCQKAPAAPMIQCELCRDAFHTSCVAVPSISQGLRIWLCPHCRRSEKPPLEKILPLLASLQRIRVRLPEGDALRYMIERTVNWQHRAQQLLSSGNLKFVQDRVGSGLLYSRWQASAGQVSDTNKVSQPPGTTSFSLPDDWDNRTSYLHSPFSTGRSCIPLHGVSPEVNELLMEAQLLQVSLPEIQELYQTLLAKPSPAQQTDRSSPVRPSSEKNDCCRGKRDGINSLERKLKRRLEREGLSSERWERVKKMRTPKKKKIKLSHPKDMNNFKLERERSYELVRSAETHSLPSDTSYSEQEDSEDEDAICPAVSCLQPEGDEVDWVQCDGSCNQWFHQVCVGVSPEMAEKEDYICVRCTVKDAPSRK
Method in brief: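 Compound dilutions met 200 nM (final) KDM5BΔAP for 10 min at room temperature before substrate addition. The substrate mix held 12.5 µM H3K4me3 with cofactors 25 µM α-ketoglutarate and 50 µM Fe²⁺. NADH signal gain over 30 min defined activity.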
Further: nearly all actives have a fitted effect of over 70% in size.
Potency means the concentration at half of the fitted maximal effect; tags describe the fitted curve by direction and shape.
Wherever activity change, negative = inhibition is given: 0% is about no effect.

Compound | Potency | activity change, negative = inhibition
COc1ccc(CC(=O)N2CC[C@@H](CC(=O)O)[C@@H](CCN(C)c3ccccc3)C2)cc1 | inconclusive: 17.8 µM [inhibitor, partial curve] | 
O=C(O)CCc1c[nH]c2ccccc12 |  | inactive: 5.34%
Cc1ccsc1C(=O)NNC(=S)NC(C)c1ccccc1 (stereo unspecified) |  | inactive: 19.7%
Cc1cc2n(CC(O)COc3ccc(Cl)cc3)c(=O)c3ccccc3n2n1 (stereo unspecified) |  | inactive: -26.9%
COc1ncccc1-c1nc(-c2c(C)noc2C)cc2cc(C(C)C)oc12 | active: 31.6 µM | 
O=C1CC(c2ccccc2O)Cc2nc(N3CCN(c4cccc(Cl)c4)CC3)ncc21 (stereo unspecified) | inconclusive: 25.1 µM [inhibitor, partial curve, poor fit] | 
Nc1nccnc1C(=O)NCCc1cccs1 | inconclusive: 39.8 µM [inhibitor, single point] | 
O=C(CC1Nc2cccc3cccc(c23)NC1=O)Nc1ccc(F)cc1 (stereo unspecified) | inconclusive: 10 µM [inhibitor, partial curve, poor fit] | 
CCCc1noc(-c2ccn3c(CNC(=O)Cc4cccc(F)c4)nnc3c2)n1 | active: 7.08 µM | 
CNC(=O)c1ccc(CN(C)c2nc3ccccc3o2)cc1 |  | inactive: -0.577%
Clc1cccnc1-c1cc(NCc2ccccn2)nc2[nH]ccc12 | inconclusive: 17.8 µM [inhibitor, partial curve, poor fit] | 
N#CCSc1nnc(-c2ccccc2)n1-c1ccc(F)cc1F |  | inactive: 9.2%
Cc1ccc(CNC(=O)COc2ccc3c(C(F)(F)F)cc(=O)oc3c2)cc1 |  | inactive: -6.71%
O=C(NCc1cccs1)c1cc(C2CC2)nc2onc(C3CCNC3)c12 (stereo unspecified) | inconclusive: 56.2 µM [inhibitor, partial curve, poor fit] | 
CCC(=O)Nc1cccc(-c2nc3cc(OC)ccc3o2)c1 | inconclusive: 22.4 µM [inhibitor, partial curve, poor fit] | 
C=CCn1c(=NC(=O)c2cccc(N3C(=O)CCC3=O)c2)sc2cccc(OC)c21 | inconclusive: 35.5 µM [inhibitor, partial curve, poor fit] | 
COc1ccc(S(=O)(=O)N2CCc3ccccc32)cc1C(=O)Nc1ccc(NC(C)=O)cc1 | inconclusive: 39.8 µM [inhibitor, single point] | 
CCn1nccc1C(=O)N1CCOc2ccc(CCC(N)=O)cc2C1 |  | inactive: -0.875%
CNC(=O)[C@@H]1CN(C(=O)c2cc3ccc(OC)cc3[nH]2)C[C@H]1C1CCN(C)CC1 | active: 20 µM | 
Cc1ccc(-c2c(C)nn3c2NC(=O)CCC3=O)cc1S(=O)(=O)NCc1ccco1 |  | inactive: 2.53%
COc1ccc(CCNC(=S)Nc2cccc(F)c2)cc1 |  | inactive: -24.4%
COc1ccc2c(C)cc(SCC(=O)Nc3cc(C(N)=O)cc(C(N)=O)c3)nc2c1 | inconclusive: 39.8 µM [inhibitor, single point] | 
Cc1cc(=O)oc2cc(OC(C)C(=O)NCCCn3ccnc3)ccc12 (stereo unspecified) | inconclusive: 22.4 µM [inhibitor, single point] | 

Compound | Potency | activity change, negative = inhibition
COc1cccc(Nc2ncc3c(n2)C(C)(C(=O)N2CCCC2)CC3)c1 (stereo unspecified) |  | inactive: 8.95% [at 86.2 µM]
O=[S+]([O-])(c1cccc(C(F)(F)F)c1)N1CCC2(CCN(CCc3ccccc3)c3ccccc3O2)CC1 | inconclusive: 28.2 µM [inhibitor, partial curve] | 
CS(=O)(=O)N1CCc2cc(C(=O)Nc3ccc(S(N)(=O)=O)cc3)ccc21 | inconclusive: 1.78 µM [inhibitor, full curve, poor fit] | 
CN(C)c1cccc(C(=O)N2CCN(C(=O)c3nnn4c3COC(c3ccc(Cl)cc3)C4)CC2)c1 (stereo unspecified) | inconclusive: 31.6 µM [inhibitor, single point] | 
O=C(N/N=C/c1cccc2nccnc12)c1ccncc1 | inconclusive: 25.1 µM [inhibitor, partial curve, poor fit] | 
Clc1ccccc1C1(c2ccnc(NC3CC3)n2)CCNCC1 | inconclusive: 44.7 µM [inhibitor, partial curve, poor fit] | 
Cc1ccc(C(=O)c2ccccc2C(=O)OC/C=C/c2ccccc2)cc1C |  | inactive: -0.273%
CCNC(=O)NC(=O)C(C)OC(=O)c1ccc2ccccc2n1 (stereo unspecified) |  | inactive: -2.79%
CCc1ccc(NC(=O)c2ccc(F)c(S(=O)(=O)NCCc3ccc(OC)c(OC)c3)c2)cc1 | inconclusive: 1 µM [inhibitor, full curve, poor fit] | 
CNC(=S)N/N=C(/C)c1ccccn1 | inconclusive: 39.8 µM [inhibitor, single point] | 
N#Cc1ccccc1COC(=O)c1ccc(CO)cc1 |  | inactive: 31.2%
CCc1nc2ccccc2c(C(=O)OC(C)C(=O)NC(N)=O)c1C (stereo unspecified) |  | inactive: 12.3%
CC1CCCCN1S(=O)(=O)c1ccc2nc(N3CCCCCC3)ccc2c1 (stereo unspecified) | inconclusive: 22.4 µM [inhibitor, partial curve, poor fit] | 
CC1=C(C#N)C(c2ccc(O)cc2)C(C#N)=C(C)N1 | inconclusive: 15.8 µM [inhibitor, partial curve, poor fit] | 
CC(C)(C)c1ccc(NC(=O)COc2ccccc2C#N)cc1 |  | inactive: 14.4%
CCOC(=O)/C(C#N)=C1\C(=O)N(Cc2ccccc2)c2ccccc21 | inconclusive: 20 µM [inhibitor, partial curve, poor fit] | 
CC(C)c1ccc(NC(=O)Cn2c(=O)n(Cc3nc(-c4ccccc4)no3)c(=O)c3cc4c(cc32)OCO4)cc1 | inconclusive: 10 µM [inhibitor, partial curve, poor fit] | 
Cc1ccc(-n2c(SCC(=O)Nc3c(C)cccc3C)nc(O)c(C)c2=O)cc1 |  | inactive: 20.5%
CN(C)S(=O)(=O)N1CCOc2ccc(CCC(=O)NCC3CC3)cc2C1 |  | inactive: 11.1%
CS(=O)(=O)N1CCCC(C(=O)NCCN2CCc3ccccc3C2)CCNC(=O)CC1 (stereo unspecified) |  | inactive: -17%
CCCCNc1nc2ccccc2nc1NS(=O)(=O)c1cccc(C)c1 | inconclusive: 14.1 µM [inhibitor, partial curve, poor fit] | 
Cc1cc(C(=O)N2CCN(S(=O)(=O)c3ccccc3)CC2)c(C)n1C(C)C |  | inactive: -11.8%
O=C(Cc1ccc(Cl)cc1)Nc1ccc2nn(-c3ccccc3)nc2c1 | inconclusive: 1.26 µM [inhibitor, full curve, poor fit] | 
